In PubChem BioAssay AID1508642 (National Center for Advancing Translational Sciences (NCATS), 2021):
The whole screen tested about 43,000 compounds, of which about 200 (0.47%) were called active. Roughly 12% stayed inconclusive and do not appear here. The call rests on the fitted dose curve; in most records, active means well fitted cell-killing curve with a large enough effect; inconclusive means small, poorly fitted or top-dose-only effect, or effect the other way; inactive means flat fitted curve, though single readings scatter. The list shows a part of the results.
On the % scale 0 is the no-effect control and ±100 the full control effect.

Test: Cell viability qHTS assay in S16 Pmp22-F2sN cells; further: nearly all actives have a fitted effect of over 65% in size
Conditions: S16 Pmp22-F2sN Schwann cells viability, CellTiter-Glo, 24 h; series mostly up to 57.5 µM; activity change, negative = cytotoxicity: at the top concentration
How it was run: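 S16 Pmp22-F2sN Schwann cells (500-1,000/well) in phenol-red-free DMEM with 10% FBS received 23 nL compound by pin tool for 24 h at 37 °C. Viability was then read as CellTiter-Glo luminescence after 15 min at room temperature.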
With `CCOc1ccccc1NC(=O)CCS(=O)(=O)c1cccc2nsnc12` the “activity change, negative = cytotoxicity” value was inactive: -5.04%.
With `Cc1ccc(Nc2ncnc3c2cnn3-c2ccccc2)c(C)c1` the “activity change, negative = cytotoxicity” value was inactive: 11.9%.
In the case of `Cc1cccc(-c2noc(CCCC(=O)NCc3ccco3)n2)c1`, the “activity change, negative = cytotoxicity” value was inactive: 0.677%.
With `COCCn1c(CCC(=O)Nc2cc(C)ccc2C)nc2cccnc21` the “activity change, negative = cytotoxicity” value was inactive: -5.34%.
With `CCn1c(=O)c2sccc2n2c(CCCC(=O)N3CCN(c4ccc(OC)cc4)CC3)nnc12` the “activity change, negative = cytotoxicity” value was inactive: 17.4%.
With `CCc1cccc(NC(=O)c2nnn(Cc3ccc(SC)cc3)c2N)c1` the “activity change, negative = cytotoxicity” value was inactive: 4.72%.
For `CCOCCCNC(=O)C(c1ccccc1)N(Cc1cccs1)C(=O)c1ccc(NC(C)=O)cc1` (stereo unspecified), the “activity change, negative = cytotoxicity” value was inactive: -13.9%.
For `COc1ccc(N2CCN(C(=O)c3c(C)oc4ncnc(N5CCCCC5)c34)CC2)cc1`, the “activity change, negative = cytotoxicity” value was inactive: 22.3%.
In the case of `Cc1cccc(N2CCN(C(=O)C3CCCN(S(=O)(=O)c4cccc5nsnc45)C3)CC2)c1C` (stereo unspecified), the “activity change, negative = cytotoxicity” value was inactive: 19.8%.
With `O=C1CC(c2ccccc2)Cc2[nH]c(=O)c(C(=O)Nc3ccc(OC(F)(F)F)cc3)cc21` (stereo unspecified) the “activity change, negative = cytotoxicity” value was inactive: 15.1%.
In the case of `O=C(CN1C(=O)CCSc2ccc(S(=O)(=O)N3CCCC3)cc21)Nc1ccccc1`, the “activity change, negative = cytotoxicity” value was inactive: -11.3%.
For `CCC(C(=O)Nc1ccccc1C(=O)OC)n1c(C)c2cnn(-c3ccccc3)c(=O)c2c1C` (stereo unspecified), the “activity change, negative = cytotoxicity” value was inactive: -2.53%.
With `CCC(Oc1ccccc1)C(=O)Nc1ccc(O)c(-c2nc3cc(C)ccc3o2)c1` (stereo unspecified) the “activity change, negative = cytotoxicity” value was inactive: -18.4%.
In the case of `Cn1c(CN2CCCCC2)nc2cc(NC(=O)c3cccc(Br)c3)ccc21`, the “activity change, negative = cytotoxicity” value was inactive: -14.1%.
For `NC(=O)CSc1oc(-c2ccco2)nc1S(=O)(=O)c1ccc(Br)cc1`, the “activity change, negative = cytotoxicity” value was inactive: -15%.
With `CCCCn1cc(S(=O)(=O)c2ccc(C)c(C)c2)c(=O)c2cc(F)c(N3CCN(C)CC3)cc21` the “activity change, negative = cytotoxicity” value was inactive: -0.941%.
In the case of `COc1cccc(NC(=O)CCS(=O)(=O)c2ccc3c(c2)oc(=O)n3C)c1`, the “activity change, negative = cytotoxicity” value was inactive: 1.73%.
For `COc1ccc(NC(=O)Cn2c(=O)n(CCCC(=O)NCc3ccccc3OC)c(=O)c3ccccc32)cc1Cl`, the “activity change, negative = cytotoxicity” value was inactive: 20.7%.
With `O=C(Cn1cc(S(=O)(=O)Cc2ccccc2Cl)c2ccccc21)NCc1ccccc1Cl` the “activity change, negative = cytotoxicity” value was inactive: -17.2%.
For `Cn1c(=O)oc2cc(S(=O)(=O)N3CCC(C(=O)NCc4ccccc4Cl)CC3)ccc21`, the “activity change, negative = cytotoxicity” value was inactive: 8.64%.
With `O=C1CN(C(=O)Cc2ccc(F)cc2)C(c2ccccc2)c2cc(Br)ccc2N1` (stereo unspecified) the “activity change, negative = cytotoxicity” value was inactive: -4.52%.
For `O=C1c2oc3ccccc3c(=O)c2C(c2ccc(Br)cc2)N1c1ccccn1` (stereo unspecified), the “activity change, negative = cytotoxicity” value was inactive: 2.92%.
With `COC(=O)c1cnn(-c2ccc(C(=O)Nc3cccc(C(C)=O)c3)cc2)c1N` the “activity change, negative = cytotoxicity” value was inactive: 1.28%.
For `CCOc1ccc(NC(=O)CC2C(=O)N(c3ccccc3)C(=O)N2CCc2ccc(OC)cc2)cc1` (stereo unspecified), the “activity change, negative = cytotoxicity” value was inactive: 5.84%.
For `Cc1cccc(OCc2cc(=O)n3c(-c4ccccc4)csc3n2)c1C`, the “activity change, negative = cytotoxicity” value was inactive: -1.91%.
For `CCCn1c(SCc2nc(-c3ccccc3C)no2)nnc1-c1ccc(Cl)cc1`, the “activity change, negative = cytotoxicity” value was inactive: -22.9%.
